Measurements published in PubChem BioAssay AID1030 (National Center for Advancing Translational Sciences (NCATS), 2008).
In all, about 220,000 compounds went through this assay and about 16,000 (7.3%) were called active. The shares of active, inactive and inconclusive entries below differ from those in the screen. Calls come from the whole dose curve; as a rule, active = well fitted inhibition curve with a large enough effect (not every such curve was filed as active); inconclusive = small, poorly fitted or top-dose-only effect, or another doubt; inactive = no such curve, though single readings can be large or run the other way. No potency is given beside an inconclusive call; the fits are too rough.
Potency is the fitted concentration of half-maximal effect; tags give direction and shape of the fitted curve.

The compounds below were run against Aldehyde dehydrogenase 1A1 (Homo sapiens) (UniProt P00352) (assay: qHTS Assay for Inhibitors of Aldehyde Dehydrogenase 1 (ALDH1A1)). Details: Purified ALDH1A1, NADH fluorescence, propionaldehyde substrate; series mostly up to 75.3 µM.
UniProt P00352, sequence (P00352 whole entry, looked up): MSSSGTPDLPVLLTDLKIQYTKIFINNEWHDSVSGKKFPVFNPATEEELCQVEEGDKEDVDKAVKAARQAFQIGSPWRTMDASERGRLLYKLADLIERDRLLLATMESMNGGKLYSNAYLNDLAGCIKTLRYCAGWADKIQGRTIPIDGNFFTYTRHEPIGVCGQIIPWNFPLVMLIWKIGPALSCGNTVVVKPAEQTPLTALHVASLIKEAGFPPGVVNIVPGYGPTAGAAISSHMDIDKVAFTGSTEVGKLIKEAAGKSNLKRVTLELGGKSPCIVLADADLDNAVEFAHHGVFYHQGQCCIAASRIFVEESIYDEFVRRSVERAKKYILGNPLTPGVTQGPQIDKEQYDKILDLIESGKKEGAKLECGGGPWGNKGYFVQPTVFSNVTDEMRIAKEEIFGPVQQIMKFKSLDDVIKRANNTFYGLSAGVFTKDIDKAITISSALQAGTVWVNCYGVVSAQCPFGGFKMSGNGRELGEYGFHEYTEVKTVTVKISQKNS
For CCOc1ccc2nc(NCCNC(=O)C3CC3)c(C)cc2c1, the Potency was inconclusive [inhibitor, partial curve].
With CN(C)S(=O)(=O)N(CC(=O)Nc1cccc(F)c1)c1ccccc1 the Potency was inconclusive [inhibitor, single point].
O=C(NC1CCCC1)c1sc(=S)n2c1[nH]c(=O)c1ccccc12 was tested, and the Potency was inconclusive [inhibitor, single point].
Cc1ccsc1C=Nc1c(C)n(C)n(-c2ccccc2)c1=O was tested, and the Potency was inconclusive [inhibitor, full curve].
With O=c1oc(-c2ccc(Br)o2)nc2ccccc12 the Potency was inconclusive [inhibitor, single point].
For CCOC(=O)Cc1csc(N/C(=N/S(=O)(=O)c2ccc(Cl)cc2)c2ccccc2)n1, the Potency was “inactive”.
For C=C1CCC2C(CC2(C)C)C(=O)CCC1O (stereo unspecified), the Potency was “inactive”.
Cc1ccc(C(CC(=O)O)Nc2nc(N3CCCCC3)nc(N3CCCCC3)n2)cc1 (stereo unspecified) was tested, and the Potency was active: 25.1 µM.
In the case of NC(CO)C(=O)NNCc1ccc(O)c(O)c1O (stereo unspecified), the Potency is reported as active: 3.44 µM.
With COc1cccc2cc(C(=O)N3CCN(c4ccccc4F)CC3)c(=O)oc12 the Potency was inconclusive [inhibitor, single point].
For CCN1CCN(C(=O)c2ccc3c(c2)S(=O)(=O)c2ccccc2C3=O)CC1, the Potency was active: 7.94 µM.
With Oc1ccc(CNc2ccccc2F)c2cccnc12 the Potency was active: 8.91 µM.
COc1ccc(N2CCN(c3oc(COc4ccccc4Cl)nc3C#N)CC2)cc1 was tested, and the Potency was “inactive”.
Cc1ccc(S(=O)(=O)NCCC(=O)NCc2ccc3c(c2)OCO3)cc1C was tested, and the Potency was active: 7.94 µM.
O=[N+]([O-])c1ccc(N2CCCCC2)s1 was tested, and the Potency was inconclusive [inhibitor, single point].
With Cc1ccccc1OCc1nc2ccc(S(=O)(=O)N3CCOCC3)cc2[nH]1 the Potency was active: 10 µM.
For COCCn1c(=O)[nH]c2cc(C(=O)NC(C)C)ccc2c1=O, the Potency was inconclusive [inhibitor, partial curve].
CC(=O)Oc1cc2cccc(OC(C)=O)c(=O)c2c(OC(C)=O)c1OC(C)=O was tested, and the Potency was active: 3.98 µM.
In the case of O=[N+]([O-])c1ccc(OC/C=C2\Oc3ccc([N+](=O)[O-])cc3C2N2CCOCC2)cc1 (stereo unspecified), the Potency is reported as active: 25.1 µM.
CCOC(=O)Cc1nnc(NC(=O)c2ncn[nH]2)s1 was tested, and the Potency was “inactive”.
For COc1ccc(N2CCN(C(=O)c3ccc(NS(=O)(=O)c4cccs4)cc3)CC2)cc1, the Potency was inconclusive [inhibitor, partial curve].
With COc1ccccc1N1CCN(CC(=O)Nc2ccc(CN3CCCCC3)cc2)CC1 the Potency was “inactive”.
COC(=O)c1c(NC(=O)CCNCc2ccco2)sc2c1CCC2 was tested, and the Potency was active: 23.8 µM.
In the case of COc1ccc2cc(C(=O)OC(C)C)sc(=O)c2c1OC, the Potency is reported as active: 5.01 µM.
With CCOc1ccc(Br)cc1CN(CC)CC the Potency was “inactive”.
With CC(=O)Nc1ccc(S(=O)(=O)NNC(=O)c2ccc(S(=O)(=O)N3CCCCC3)cc2)cc1 the Potency was “inactive”.
For Cc1ccc([N+](=O)[O-])c(N)c1, the Potency was “inactive”.
In the case of CCOc1cc(/C=N/Nc2nc3ccccc3[nH]2)cc(Br)c1OCC(=O)N(C)C, the Potency is reported as inconclusive [inhibitor, single point].
For CCC(NC(=O)OC(C)(C)C)C(=O)Oc1ccc2c3c(c(=O)oc2c1)CCC3 (stereo unspecified), the Potency was inconclusive [inhibitor, partial curve].
In the case of Cc1nc2cnc(N3CCOCC3)nc2n(C[C@H]2CCCO2)c1=O, the Potency is reported as inconclusive [inhibitor, single point].
CN(C)CCNC(=O)c1cc2c(=O)n(C)c3ccccc3c2n1C was tested, and the Potency was inconclusive [inhibitor, partial curve].
With C[C@]12CCC3c4ccc(O)cc4CCC3C1CCC2OC(=O)CCC1CCCC1 (stereo partly specified) the Potency was “inactive”.
CCCN(CC1CC1)C(=O)CSc1nnc(-c2cc(-c3cccs3)nc3ccccc23)o1 was tested, and the Potency was inconclusive [inhibitor, partial curve].
COc1cccc(Cn2c(=O)cnc3cnc(N(C)C)nc32)c1 was tested, and the Potency was inconclusive [inhibitor, partial curve].
For CCCn1c(SCC(=O)N2c3ccc(F)cc3CCC2C)nnc1-c1ccccn1 (stereo unspecified), the Potency was inconclusive [inhibitor, partial curve].
For COc1cccc(OC)c1C(=O)NC(=S)Nc1ccc2c(c1)Cc1ccccc1-2, the Potency was active: 10 µM.
For Cc1ccc(NC(=S)Nc2c(C)n(C)n(-c3ccccc3)c2=O)cc1, the Potency was inconclusive [inhibitor, single point].
For CCOC(=O)c1c(C)[nH]c(C)c1C(=O)COC(=O)c1cc(OC)c(OC)cc1OC, the Potency was “inactive”.
In the case of Brc1cccc(Cn2c(-c3cncs3)nc3ccccc32)c1, the Potency is reported as “inactive”.
For CC1=CN2C(=N)/C(=C\c3cn(CCCOc4ccccc4)c4ccccc34)C(=O)N=C2S1, the Potency was “inactive”.
With CCCn1c(SCC(=O)c2cc(OC)ccc2OC)nnc1C(C)C the Potency was inconclusive [inhibitor, single point].
CCCCn1nnnc1SCC(=O)Nc1sc2c(c1C#N)CCCC2 was tested, and the Potency was active: 28.2 µM.
For COC(=O)Nc1ccc(SCC(=O)c2ccccc2)cc1, the Potency was inconclusive [inhibitor, single point].
With Cc1cc(=O)oc(C)c1C(=O)N1CCN(C(c2ccccc2)c2ccccc2)CC1 the Potency was inconclusive [inhibitor, single point].
For Cc1ccc(N(C)C(=O)N2CCN(S(=O)(=O)c3ccc(C)cc3)CC2)cc1, the Potency was “inactive”.
For CS(=O)(=O)Nc1ccc(C(=O)N2CCCC2)cc1, the Potency was inconclusive [inhibitor, single point].
For CCOC(=O)c1c(C(=O)OCC)c(C)n(N2C(=O)CSC2=S)c1C, the Potency was “inactive”.
For CCCN(Cc1cc2ccc(C)cc2[nH]c1=O)C(=O)c1ccccn1, the Potency was inconclusive [inhibitor, partial curve].
For COc1ccc(OCCSc2nnnn2C2CCCCC2)cc1, the Potency was active: 22.4 µM.
For CC(C)C(=O)NC(=O)COC(=O)/C=C/c1cccs1, the Potency was “inactive”.
For O=C(N/N=C/c1ccc([N+](=O)[O-])cc1)c1cccs1, the Potency was “inactive”.
